Screen size: about 48,000 compounds; about 450 (0.94%) were called active. The shares of active, inactive and inconclusive entries below differ from those in the screen. Calls follow the shape of the dose curve; as a rule, active = well fitted inhibition curve with a large enough effect; inconclusive = small, poorly fitted or top-dose-only effect; inactive = no such curve, though single readings can be large or run the other way. Where the call is inconclusive, the potency comes from a doubtful curve fit.
experiment: Primary qHTS for Identification of Small Molecule Inhibitors of Huntingtin Promoter Activity; settings: HEK293 HTT promoter firefly luciferase reporter (activity 0% = vehicle and -100% = no light), 24 h; activity change, negative = inhibition: at 57.5 µM (top of the series); also: nearly all actives have a fitted effect of over 50% in size
How it was run: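 Firefly luciferase signal from promoter-reporter HEK293 cells was scaled between vehicle (0%) and zero RLU (-100%). Compounds were tested at final concentrations of up to 57.5 uM over 24 h at 37 degrees C. PTC124 at 50 uM final served as control inhibitor.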
Potency is read from the fitted curve at half-maximal effect; tags tell the direction and shape of the fitted curve.

SMILES	Potency	activity change, negative = inhibition
CCCOc1cccc(NC(=O)c2c(-c3ccccc3Cl)noc2C)c1	inconclusive: 28.2 µM [inhibitor, partial curve, poor fit]	
Cc1ccc(-c2nc3sc(CCNS(=O)(=O)c4cc(F)ccc4F)c(C)n3n2)cc1	inconclusive: 28.2 µM [inhibitor, partial curve]	
COc1cccc(NC(=O)C2CCC(CNS(=O)(=O)c3ccc4c(c3)CC(C)N4C(C)=O)CC2)c1 (configuration not stated)	inconclusive: 25.1 µM [inhibitor, single point]	
CCOC(=O)c1[nH]c(C)c(CCC(=O)NCc2ccc(N(C)C)cc2)c1C	inactive	
COc1ccc(S(=O)(=O)NCCc2cc3ccc(C)c(C)c3[nH]c2=O)cc1	inconclusive: 31.6 µM [inhibitor, single point]	
Cc1ccc(S(=O)(=O)CC(=O)Nc2sc3c(c2C(N)=O)CCCC3)cc1	inconclusive: 7.94 µM [inhibitor, partial curve, poor fit]	
CC(C)CCNC(=O)Nc1ccc2c(c1)N(Cc1ccccc1)C(=O)c1ccccc1S2	inconclusive: 31.6 µM [inhibitor, single point]	
Cc1c(CCNC(=O)c2ccco2)sc2nc(-c3ccc(F)cc3)nn12	inactive	
Cc1ccc(NC(=O)CN2CCSc3ccc(S(=O)(=O)N4CCCC4)cc32)cc1	inconclusive: 35.5 µM [inhibitor, partial curve, poor fit]	
CCN(CC)c1cc2c(cc1F)c(=O)c(S(=O)(=O)c1ccc(OC)cc1)cn2Cc1ccccc1	inconclusive: 20 µM [inhibitor, partial curve, poor fit]	
CCCCN(CC)C(=O)c1cc2c(=O)n3cccc(C)c3nc2n1C	inactive	
CCOc1ccc(S(=O)(=O)N(CC(=O)NCc2ccccc2OC)c2ccccc2)cc1	inconclusive: 39.8 µM [inhibitor, single point]	
CCc1cccc(NC(=O)Cn2c(=O)n(CC(=O)NCCc3ccccc3)c(=O)c3ccccc32)c1	inactive	
COc1cccc(CNC(=O)c2oc3c(c2C)-c2nn(Cc4cccc(Cl)c4)cc2CC3)c1OC	inconclusive: 25.1 µM [inhibitor, single point]	
OC[C@H]1O[C@@H](OCCc2ccc(O)cc2)[C@H](O)[C@@H](O)[C@H]1O	inactive	
O=C(NCCc1ccc(Cl)cc1)c1ccc(CS(=O)Cc2ccccc2Cl)o1 (configuration not stated)	inconclusive: 31.6 µM [inhibitor, single point]	
COc1ccc(NC(=O)Cn2c(SCc3ccc(F)cc3)nc3cccnc32)cc1OC	inconclusive: 25.1 µM [inhibitor, single point]	
Oc1ccc([C@@H]2Oc3ccc(O)cc3[C@@H]3CCC[C@@H]32)cc1	inconclusive: 3.85 µM [inhibitor, full curve]	
CCOCCCN1C(=O)c2[nH]nc(-c3ccccc3O)c2C1c1ccc(CC)cc1 (configuration not stated)	inconclusive: 22.4 µM [inhibitor, single point]	

SMILES	Potency	activity change, negative = inhibition
CCOC(=O)c1oc2c(c1C)-c1nn(Cc3c(F)cccc3Cl)cc1CC2	inconclusive: 39.8 µM [inhibitor, single point]	
O=S(=O)(c1ccc2nc(NCc3ccccc3Cl)ccc2c1)N1CCCCC1	inconclusive: 25.1 µM [inhibitor, single point]	
CC(CNC(=O)c1ccc(CSc2nc3ccncc3n2Cc2ccccc2)cc1)c1ccccc1 (configuration not stated)	inconclusive: 39.8 µM [inhibitor, single point]	
COc1cc(Cl)c(NS(=O)(=O)c2ccc(-c3cnc(C4CC4)o3)cc2)c(OC)c1	inconclusive: 1 µM [inhibitor, full curve, poor fit]	
CCOC(=O)c1cc(S(=O)(=O)N2CCN(c3ccc(C(C)=O)cc3)CC2)[nH]n1	inconclusive: 28.2 µM [inhibitor, partial curve, poor fit]	
CCOC(=O)c1ccc(NC(=O)NCCOCCn2c(=O)oc3ccccc32)cc1	inconclusive: 31.6 µM [inhibitor, single point]	
CC(C)C[C@H](NC(=O)CNC(=O)c1cc(Cl)ccc1Cl)B(O)O	inconclusive: 0.217 µM [inhibitor, full curve]	
CC(=O)Nc1cccc(NC(=O)CN2C(=O)CCSc3ccccc32)c1	inactive	
CCn1c2c(c(=O)n3ncc(C(=O)Nc4cc(Cl)ccc4C)c13)CN(Cc1ccc(OC)cc1)CC2	inconclusive: 35.5 µM [inhibitor, partial curve]	
COc1ccc(C2C=C(c3cccc(OC)c3)Nc3c(C(=O)Nc4ccccc4)cnn32)cc1 (configuration not stated)	inconclusive: 25.1 µM [inhibitor, partial curve, poor fit]	
Cc1ccn2c(Nc3ccc(C(C)C)cc3)c(-c3cccs3)nc2c1	inconclusive: 39.8 µM [inhibitor, single point]	
CC(=O)N1c2ccc(S(=O)(=O)NCC3CCC(C(=O)Nc4ccc(C)cc4)CC3)cc2CC1C (configuration not stated)	inconclusive: 25.1 µM [inhibitor, partial curve, poor fit]	
COC(=O)c1cc2sc(C)cc2n1CC(=O)Nc1ccc(C)c(C)c1	inconclusive: 39.8 µM [inhibitor, partial curve, poor fit]	
COc1ccc([C@@H]2CC(=O)c3c(O)cc(O[C@@H]4O[C@H](CO[C@@H]5O[C@@H](C)[C@H](O)[C@@H](O)[C@@H]5O)[C@@H](O)[C@H](O)[C@@H]4O)cc3O2)cc1O		inconclusive: -32% [inhibitor]
Cc1ccc(S(=O)(=O)Cc2ccc(C(=O)N3CCN(c4cccc(C)c4C)CC3)o2)cc1	inconclusive: 17.8 µM [inhibitor, partial curve, poor fit]	
O=[N+]([O-])c1cc(-c2nc(-c3ccccc3)no2)ccc1N1CCCCC1	inconclusive: 0.316 µM [inhibitor, full curve, poor fit]	
CC(C)(C)c1ccc(S(=O)(=O)NCc2ccc3c(c2)CCN3C(=O)c2ccccc2)cc1	inconclusive: 22.4 µM [inhibitor, partial curve, poor fit]	
CC[C@]1(O)C[C@@H]2CN(CCc3c([nH]c4ccccc34)[C@@](C(=O)OC)(c3cc4c(cc3OC)N(C=O)[C@@H]3C45CCN4CC=C[C@](CC)([C@H]45)[C@@H](OC(C)=O)[C@]3(O)C(=O)OC)C2)C1 (some centres not stated)	inactive	
O=C(c1ccc(Cl)cc1)N1CCC(c2ccncc2)CC1	inconclusive: 28.2 µM [inhibitor, partial curve]	

SMILES	Potency	activity change, negative = inhibition
CCN(c1ncnc2c1cnn2-c1ccc(C)cc1)C1CCCCC1	inconclusive: 0.355 µM [inhibitor, full curve, poor fit]	
CC[C@H]1CN2CCc3cc(OC)c(OC)cc3[C@@H]2C[C@@H]1C[C@H]1NCCc2cc(OC)c(OC)cc21	inconclusive: 1.26 µM [inhibitor, full curve, poor fit]	
CCOc1ccc(CCNC(=O)CCc2cn(Cc3ccccc3F)c3ccccc23)cc1OCC	inconclusive: 22.4 µM [inhibitor, partial curve, poor fit]	
CCn1cc(-c2ccnc3[nH]c(-c4cccc(CN(C)C)c4)cc23)c(-c2ccc(NC(=O)N(C)C)cc2)n1	inconclusive: 6.85 µM [inhibitor, partial curve]	
CN1C(=O)CC(C)(c2ccccc2)C1=O (configuration not stated)	inactive	
COc1cc(NC(=O)c2nnn(Cc3ccc(F)cc3)c2N)cc(OC)c1	inconclusive: 8.91 µM [inhibitor, full curve, poor fit]	
Cc1ccccc1C(=O)N1CCC(c2nc3ccccc3s2)CC1	inconclusive: 25.1 µM [inhibitor, partial curve, poor fit]	
CCC(=O)N1CCc2cc(Br)cc(S(=O)(=O)NCCc3ccc(OC)c(OC)c3)c21	inactive	
O=C(NCCCc1nc2ccccc2n1Cc1ccccc1Cl)C1CCCCC1	inconclusive: 39.8 µM [inhibitor, single point]	
CCn1c(SCc2ccccc2)nnc1-c1nonc1NC(C)=O	inconclusive: 39.8 µM [inhibitor, partial curve, poor fit]	
Cc1[nH]n2c(=O)cc(-c3ccccc3Cl)nc2c1-c1ccccc1	inconclusive: 31.6 µM [inhibitor, single point]	
Cc1cc(NC(=O)CN2C(=O)C(C)(C)c3ccccc32)ccc1Br	inconclusive: 17.8 µM [inhibitor, partial curve]	
CCN(C(=O)CSc1nc2ccccc2n1CC(=O)Nc1cccc(C#N)c1)c1ccccc1	inconclusive: 28.2 µM [inhibitor, partial curve, poor fit]	
COc1ccc(C(CC(=O)Nc2ccc(F)c(Cl)c2)N2Cc3ccccc3C2=O)cc1OC (configuration not stated)	inactive	
Cc1ccccc1CNC(=O)c1ccc(NC(=O)c2nsc3ccccc23)cc1	inconclusive: 39.8 µM [inhibitor, single point]	
CCn1c(=O)cc(SCC(=O)Nc2ccc(C)c(F)c2)c2ccccc21	inconclusive: 39.8 µM [inhibitor, partial curve, poor fit]	
O=C(Cn1c(=O)oc2cc(S(=O)(=O)N3CCCCCC3)ccc21)Nc1cccc(C(F)(F)F)c1	inconclusive: 8.91 µM [inhibitor, full curve, poor fit]	
Cc1ccccc1Nc1sc(C(=O)c2ccc3c(c2)OCO3)c(N)c1S(=O)(=O)c1ccccc1	inconclusive: 10 µM [inhibitor, partial curve]	
Cc1ccc(-c2nc(C(=O)NCc3ccc(Cl)cc3)c3n2CCCCC3)cc1	inconclusive: 31.6 µM [inhibitor, partial curve, poor fit]	
